Assay results as given in PubChem BioAssay AID2675 (National Center for Advancing Translational Sciences (NCATS), 2010).
In all, about 280,000 compounds went through this assay and about 100 (0.036%) were called active. The inconclusive results got no clear call from the source; some entries with a clear call stand among them for comparison. The call rests on the fitted dose curve; in most records, active means well fitted inhibition curve with a large enough effect in the signal ratio, with a control signal flat (not every such curve was filed as active); inconclusive means small, poorly fitted or top-dose-only effect, or effect the other way, or a change in a side signal; inactive means no such curve, though single readings can be large or run the other way; the % refers to the signal ratio. A potency beside an inconclusive call is a rough fit, not a confirmed value. A note “side channel” means that the fit belongs to a control or component signal, not to the main read-out.

These compounds were tested against Muscleblind-like protein 1 (Homo sapiens) (UniProt Q9NR56) (assay: qHTS Assay for Inhibitors of MBNL1-poly(CUG) RNA binding). Details: TR-FRET MBNL1-His/biotin-(CUG)12 binding, 665/545 ratio; activity change, negative = inhibition: at 57.5 µM (top of the series).
In short: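 MBNL1-His + Biotin-(CUG)12, cpd titration 92 nM–58 uM; Tb anti-His Ab 0.055 ng/ul, SA-XL665 5 nM (final); 60 min RT; ratiometric 665/545 nm, Ex 340 nm; normalized to buffer and full-complex controls.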
On the % scale 0 is the no-effect control and ±100 the full control effect; potency means the concentration at half of the fitted maximal effect; tags describe the fitted curve by direction and shape or compound fluorescence and quenching.

Chain of UniProt Q9NR56 (Q9NR56 whole entry, looked up): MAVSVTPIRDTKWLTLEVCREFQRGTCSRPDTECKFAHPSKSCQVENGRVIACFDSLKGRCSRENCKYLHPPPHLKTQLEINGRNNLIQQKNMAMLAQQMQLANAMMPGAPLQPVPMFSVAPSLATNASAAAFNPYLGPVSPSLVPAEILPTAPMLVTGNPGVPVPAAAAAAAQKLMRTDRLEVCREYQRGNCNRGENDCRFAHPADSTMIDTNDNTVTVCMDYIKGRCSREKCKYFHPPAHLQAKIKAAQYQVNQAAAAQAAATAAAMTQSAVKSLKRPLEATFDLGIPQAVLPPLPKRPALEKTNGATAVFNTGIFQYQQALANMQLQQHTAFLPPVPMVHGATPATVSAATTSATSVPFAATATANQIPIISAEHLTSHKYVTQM

SMILES | Potency | activity change, negative = inhibition
COc1ccc(/C=C(\NC(=O)c2ccc([N+](=O)[O-])cc2)C(=O)NCCN2CCOCC2)cc1 | inconclusive: 12.6 µM [quencher, partial curve] | 
Cc1ccc2cc3cc(C(=O)N4CC(C)CC(C)C4)oc3nc2c1 (configuration not stated) | inconclusive: 3.16 µM [quencher, side channel, partial curve, poor fit] | 
Nc1ccc(N2CCOCC2)c2nonc12 | inconclusive: 17.8 µM [quencher, side channel, partial curve] | 
COc1ccc(CCNC(=O)c2cc3c(=O)n4ccccc4nc3n(CC3CCCO3)c2=N)cc1OC (configuration not stated) | inconclusive: 10 µM [quencher, side channel, partial curve] | 
Cc1ccc2c(c1)C(N1CCCC1=O)CC(c1ccco1)N2 (configuration not stated) | inconclusive: 22.4 µM [quencher, single point] | 
O=C(COc1ccc(Cl)cc1Br)NC(=O)NCc1ccccc1 | inconclusive: 0.1 µM [fluorescent, side channel, full curve, poor fit] | 
O=C(N/N=C/c1cccc([N+](=O)[O-])c1)c1ccc2c(c1)OCCO2 | inconclusive: 14.1 µM [quencher, side channel, partial curve] | 
c1cnc2c(SCc3ccc(-c4nnco4)cc3)cccc2c1 | inconclusive: 15.8 µM [quencher, side channel, partial curve] | 
COC(=O)c1cc(NC(=O)c2ccc(-c3ccccc3)cc2)ccc1Cl | inconclusive: 14.1 µM [fluorescent, side channel, partial curve] | 
O=C1c2cccc3c([N+](=O)[O-])ccc(c23)C(=O)N1c1ccccn1 | inconclusive: 3.55 µM [quencher, side channel, partial curve] | 
COc1cc2ccccc2nn1 | inconclusive: 39.8 µM [quencher, side channel, single point] | 
CCCN1CN(c2ccccc2)C(=S)N(c2ccccc2)C1 |  | inactive: 0.303%
COc1ccc(NC(=O)Nc2ccc([N+](=O)[O-])cc2)cn1 |  | inactive: 15.2%
CN1c2ccccc2N(C)C1(C)c1cccc2ccccc12 | inconclusive: 8.91 µM [quencher, side channel, partial curve] | 
Cn1c(C(=O)NCC2CCCO2)cc2oc3ccccc3c21 (configuration not stated) |  | inactive: 3.72%
Cc1c(/C=C2\NC(=O)NC2=O)c2ccccc2n1C | inconclusive: 31.6 µM [quencher, side channel, partial curve] | 
O=c1[nH]c(/C=C/c2ccccn2)nc2ccccc12 | inconclusive: 12.6 µM [quencher, side channel, partial curve] | 
